Measurements taken from the supplement of paper PMC11417369.
± gives the standard deviation of the averaged measurements. The list shows a part of the results.

system: PfAP2-LT AP2 domain (GST-tagged); assay: gcPBM binding intensity (ln(normalized median fluorescence intensity)); higher = stronger DNA binding
In short: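 Plasmodium falciparum DNA-binding domains carrying a GST tag were expressed in E. coli and applied for 1 h, at about 25 μg on average, to an Agilent 4 × 180k array. The array held primer-extended double-stranded 36-bp intergenic genomic probes together with negative controls, and binding took place in 1× PBS with 1% milk, 0.2 mg/ml BSA, 0.5% salmon testes DNA and 0.03% Triton X-100. An Alexa488 anti-GST antibody detected bound protein, and the array was scanned at 488 nm. Binding intensity is taken as the highest Masliner-normalised natural-log median intensity across replicate spots of either probe orientation.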

Sequence | gcPBM binding intensity (ln)
TTCTTTTCTTTTTTCTTTTTTTTTTTCTTTTCTTTT [GTGCAC_negctrl_site630] | 8.57 ± 0.64
AAAAAAAAAAAAAAAACATGCAAAATAATATATATA [TGCATGCA_site68] | 8.74 ± 0.49
AGAAAAGGACATATATGTACTTATCAATATAGAAAC [XGTACX_site1042] | 9.04 ± 0.48
ATGTAGATATATATCTGTACGTATATGTAAATATTA [XGTACX_site1516] | 8.99 ± 0.47
ACACATTATAACAAGGTGCAATTTTTATACACATGT [GTGCAC_site9866] | 9.15 ± 0.42
AATTCTTTTTATATATTAAATATTATTAATAAGTCA [CACACA_negctrl_site1488] | 8.29 ± 0.45
CAAATATCTATTTAGTGTACTAATATATTCAATAAT [XGTACX_site2345] | 8.53 ± 0.49
TATATAAAACCTTATTGTACTATTAGACTATGCTTA [XGTACX_site6026] | 8.6 ± 0.57
ACAAAGACAATTTTGTTATATATAAAAAAAAAAAAT [CACACA_negctrl_site253] | 8.59 ± 0.56
ATTAATTTTCCATTCACACATATATATATATATATA [CACACA_site6065] | 9.5 ± 0.17
TACAAATATATATGCACACACATATCTGTATATGTG [CACACA_site5663] | 9.58 ± 0.26
ATAGCATATATTTTTTGTACATATGTTATATATATA [XGTACX_site2184] | 8.95 ± 0.33
GAAAAAAAAAAAAATACACACAAATTGGTATATAAC [CACACA_site6315] | 9.06 ± 0.51
AAAATTTCATAAAGACGTACTATAAAAATAAAATTA [XGTACX_site4182] | 8.56 ± 0.49
GCTATAATAAAATTTAAACACACGTAATATAATATA [CACACA_site2592] | 8.74 ± 0.41
AATTGTATAAATGGAATAATGACTATGATTATACAT [GTGCAC_negctrl_site188] | 8.97 ± 0.47
GTATATTTCTTTAAATGTACACATTTTTTTAAAGAG [XGTACX_site1225] | 8.46 ± 0.38
AAAAATTCTTGGCGCACACACTTTAAAAGTTAAAAA [CACACA_site6430] | 9.02 ± 0.42
CACTAATAGTGGATTACACACATATAGATGTATATA [CACACA_site7234] | 8.95 ± 0.35

Sequence | gcPBM binding intensity (ln)
TATAAAAAATATCCTTTTTTTATACATCAATATATA [TGCATGCA_negctrl_site291] | 8.2 ± 0.45
TATTAAAAGAAAATAACACACACAAAAAAAAAAAAA [CACACA_site8661] | 9.07 ± 0.38
AAAATAAGCGTGAAACGTACATATTACATTATTATA [XGTACX_site8914] | 8.78 ± 0.56
ATAATATATATATAGTGTACATTTGAATATATTTGA [XGTACX_site583] | 8.72 ± 0.4
TTTTTGAAATAATGAAACAGCAAAAAAACAAAAATA [CACACA_negctrl_site221] | 8.7 ± 0.47
AAAAAAAACAGACACACACACAAATATATAAAAATA [CACACA_site1172] | 9.94 ± 0.35
AAGGTCATTTTATATTGTACATGAAATTGTTATGTA [XGTACX_site187] | 8.71 ± 0.41
TATTACAAATATGGCACACATATATATATATATATT [CACACA_site3268] | 9.28 ± 0.12
AATAATGAATACACATGTACAAAAATTTTTCTTACT [XGTACX_site1962] | 8.84 ± 0.3
ATATATTTTGTATGTAGTACAATTTTATAATCATAT [XGTACX_site8373] | 8.73 ± 0.42
TCAATTTGGAACGGTATGCACTAATTTTATATTTTT | 8.79 ± 0.42
ATATACAGATAAATGTGTACTTAAATCTATTATATT [XGTACX_site2632] | 8.74 ± 0.41
AAAATAAAAACAAAATCACACATTCCAGTTTTTTTT [CACACA_site5356] | 8.62 ± 0.46
TTTTAAAATATCAACACACTCATTATTTTCTATATT [CACACA_site4740] | 8.64 ± 0.47
TATATACATGTGAGAGTGCATATAGACATAAAAAAT | 9.06 ± 0.54
TCATTCTATCTGTTCACACATACACAAAAAAAAAAA [CACACA_site5141] | 8.49 ± 0.36
TTTATATTTCTCTTTAGTACATATTATATTCTTTTA [XGTACX_site1618] | 8.73 ± 0.51
AATGAAAATAAATTAACACACAATTTTAATATTGTT [CACACA_site1306] | 8.66 ± 0.45
AAACATCATAAATATACACACATATATATATATATA [CACACA_site620] | 9.83 ± 0.13

Sequence | gcPBM binding intensity (ln)
TACACAAAATTTAAATGTACATTAAATATATGATGT [XGTACX_site2140] | 8.75 ± 0.44
CTTTCGGTTGGAGAGGTGCGCTTCTCCTTTATAATA | 8.76 ± 0.3
TGATAGCTAGCTATATGTACATATATATATATATAT [XGTACX_site393] | 9.54 ± 0.39
ATTTATCTATAATATACACACATATAACAGACATAT [CACACA_site6469] | 9.01 ± 0.33
AAAACGTATCACAAAAGTACAGATAGTTATAATATA [XGTACX_site185] | 8.96 ± 0.47
CGAAACCATATGTACACACACATATATAAATATGTA [CACACA_site7082] | 9.43 ± 0.44
ATATATCAACTCATATTATTTTCTTTTATTATTTAT [CACACA_negctrl_site276] | 8.76 ± 0.49
GTATACTTAACATTCACACATATATATATATATAAA [CACACA_site4596] | 9.12 ± 0.22
ATATATATATATATATGTACTTATAATTCTTCAATT [XGTACX_site5627] | 9.515 ± 0.035
AATTATTTACCTTCTTTGAAAGAACAAATGATACAA [CACACA_negctrl_site1315] | 8.47 ± 0.42
CTAAAACAATAAATCACACATACATAGGATAATATA [CACACA_site4247] | 8.98 ± 0.45
ATTTATAATCTGTATAGTACACATATATACATGGTT [XGTACX_site2714] | 8.93 ± 0.43
TCTTAAATATACAGTTGTACTAAACAAAAAAAAAAA [XGTACX_site2639] | 8.65 ± 0.47
AAAATATACACACATATGTATATAATATTATATGTA [GTGCAC_negctrl_site496] | 9.15 ± 0.42
TATAAAAAATGATAAAGTACTTTATACACACAAATA [XGTACX_site8486] | 9.06 ± 0.44
TATATATATATATATTGTACATATTGTATATATTGT [XGTACX_site3212] | 9.33 ± 0.38
TGTTACATATTATAAATACATTAACTATTATATGTA [CACACA_negctrl_site1735] | 8.6 ± 0.37
TTTATAAAAAATTTTTTTTTTTTTTTTTAAATATAT [CACACA_negctrl_site146] | 8.08 ± 0.42
TATATATATATTTATACACACATTAGTGTATCCATG [CACACA_site5609] | 9.45 ± 0.38
